This note sets out measurements from publication PMC9911399, “Two distinct binding modes provide the RNA-binding protein RbFox with extraordinary sequence specificity”.

Numbering of substitutions follows the chain as printed; changes in the protein carry UniProt numbers. Some of the results follow.

First the molecules themselves.
T1: RBFOX1 RRM (Homo sapiens, UniProt Q9NWB1 109-208)
T1 sequence: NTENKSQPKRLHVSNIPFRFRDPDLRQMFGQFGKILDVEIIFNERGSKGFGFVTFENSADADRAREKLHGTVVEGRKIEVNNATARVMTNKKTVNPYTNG

B1: AUGGGGA (DNA:RNA)
RNA: GGGAGACCGGAAUUCAGAUUGUCCAUGGGGAUUAAAUCCCGUCGUAGCCACCA
DNA 1: CAATCTGAATTCCGGTCTCCC
DNA 2: TGGTGGCTACGACGGGATT
B2: CAACAUU (DNA:RNA)
RNA: GGGAGACCGGAAUUCAGAUUGUCCCAACAUUUUAAAUCCCGUCGUAGCCACCA
DNA 1: CAATCTGAATTCCGGTCTCCC
DNA 2: TGGTGGCTACGACGGGATT
B3: UAUCGAC (DNA:RNA)
RNA: B2 RNA with C25U, A27U, A29G, U30A, U31C
DNA 1: CAATCTGAATTCCGGTCTCCC
DNA 2: TGGTGGCTACGACGGGATT
B4: GUUAGAU (DNA:RNA)
RNA: B1 RNA with A25G, G27U, G28A, G30A, A31U
DNA 1: CAATCTGAATTCCGGTCTCCC
DNA 2: TGGTGGCTACGACGGGATT
B5: AUUCUUG (DNA:RNA)
RNA: B1 RNA with G27U, G28C, G29U, G30U, A31G
DNA 1: CAATCTGAATTCCGGTCTCCC
DNA 2: TGGTGGCTACGACGGGATT
B6: GAUAGUG (DNA:RNA)
RNA: B2 RNA with C25G, A27U, C28A, A29G, U31G
DNA 1: CAATCTGAATTCCGGTCTCCC
DNA 2: TGGTGGCTACGACGGGATT
B7: GAAAUAA (DNA:RNA)
RNA: B2 RNA with C25G, C28A, A29U, U30A, U31A
DNA 1: CAATCTGAATTCCGGTCTCCC
DNA 2: TGGTGGCTACGACGGGATT
B8: AUUCCCA (DNA:RNA)
RNA: B1 RNA with G27U, G28C, G29C, G30C
DNA 1: CAATCTGAATTCCGGTCTCCC
DNA 2: TGGTGGCTACGACGGGATT
B9: GGAAUGG (DNA:RNA)
RNA: B1 RNA with A25G, U26G, G27A, G28A, G29U, A31G
DNA 1: CAATCTGAATTCCGGTCTCCC
DNA 2: TGGTGGCTACGACGGGATT
B10: ACAAUCC (DNA:RNA)
RNA: B1 RNA with U26C, G27A, G28A, G29U, G30C, A31C
DNA 1: CAATCTGAATTCCGGTCTCCC
DNA 2: TGGTGGCTACGACGGGATT
B11: GGGCAGA (DNA:RNA)
RNA: B1 RNA with A25G, U26G, G28C, G29A
DNA 1: CAATCTGAATTCCGGTCTCCC
DNA 2: TGGTGGCTACGACGGGATT
B12: CAUUUCC (DNA:RNA)
RNA: B2 RNA with A27U, C28U, A29U, U30C, U31C
DNA 1: CAATCTGAATTCCGGTCTCCC
DNA 2: TGGTGGCTACGACGGGATT
B13: GCCUUAU (DNA:RNA)
RNA: B2 RNA with C25G, A26C, A27C, C28U, A29U, U30A
DNA 1: CAATCTGAATTCCGGTCTCCC
DNA 2: TGGTGGCTACGACGGGATT
B14: GAUGACU (DNA:RNA)
RNA: B2 RNA with C25G, A27U, C28G, U30C
DNA 1: CAATCTGAATTCCGGTCTCCC
DNA 2: TGGTGGCTACGACGGGATT
B15: GUGUGCU (DNA:RNA)
RNA: B1 RNA with A25G, G28U, G30C, A31U
DNA 1: CAATCTGAATTCCGGTCTCCC
DNA 2: TGGTGGCTACGACGGGATT
B16: AAUGCUC (DNA:RNA)
RNA: B1 RNA with U26A, G27U, G29C, G30U, A31C
DNA 1: CAATCTGAATTCCGGTCTCCC
DNA 2: TGGTGGCTACGACGGGATT
B17: UUUGCGA (DNA:RNA)
RNA: B1 RNA with A25U, G27U, G29C
DNA 1: CAATCTGAATTCCGGTCTCCC
DNA 2: TGGTGGCTACGACGGGATT
B18: AGACCUC (DNA:RNA)
RNA: B2 RNA with C25A, A26G, A29C, U31C
DNA 1: CAATCTGAATTCCGGTCTCCC
DNA 2: TGGTGGCTACGACGGGATT
B19: UCUAAGA (DNA:RNA)
RNA: B1 RNA with A25U, U26C, G27U, G28A, G29A
DNA 1: CAATCTGAATTCCGGTCTCCC
DNA 2: TGGTGGCTACGACGGGATT
B20: ACGCCUG (DNA:RNA)
RNA: B1 RNA with U26C, G28C, G29C, G30U, A31G
DNA 1: CAATCTGAATTCCGGTCTCCC
DNA 2: TGGTGGCTACGACGGGATT
B21: CCCCAGU (DNA:RNA)
RNA: B2 RNA with A26C, A27C, U30G
DNA 1: CAATCTGAATTCCGGTCTCCC
DNA 2: TGGTGGCTACGACGGGATT
B22: GGAACCU (DNA:RNA)
RNA: B2 RNA with C25G, A26G, C28A, A29C, U30C
DNA 1: CAATCTGAATTCCGGTCTCCC
DNA 2: TGGTGGCTACGACGGGATT
B23: AACCGGC (DNA:RNA)
RNA: B1 RNA with U26A, G27C, G28C, A31C
DNA 1: CAATCTGAATTCCGGTCTCCC
DNA 2: TGGTGGCTACGACGGGATT
B24: UCGUCGG (DNA:RNA)
RNA: B1 RNA with A25U, U26C, G28U, G29C, A31G
DNA 1: CAATCTGAATTCCGGTCTCCC
DNA 2: TGGTGGCTACGACGGGATT
B25: UUCAAAG (DNA:RNA)
RNA: B1 RNA with A25U, G27C, G28A, G29A, G30A, A31G
DNA 1: CAATCTGAATTCCGGTCTCCC
DNA 2: TGGTGGCTACGACGGGATT
B26: UGAGUUA (DNA:RNA)
RNA: B1 RNA with A25U, U26G, G27A, G29U, G30U
DNA 1: CAATCTGAATTCCGGTCTCCC
DNA 2: TGGTGGCTACGACGGGATT
B27: CUCAGGG (DNA:RNA)
RNA: B1 RNA with A25C, G27C, G28A, A31G
DNA 1: CAATCTGAATTCCGGTCTCCC
DNA 2: TGGTGGCTACGACGGGATT
B28: CCGUAUC (DNA:RNA)
RNA: B2 RNA with A26C, A27G, C28U, U31C
DNA 1: CAATCTGAATTCCGGTCTCCC
DNA 2: TGGTGGCTACGACGGGATT
B29: CUGCGGU (DNA:RNA)
RNA: B1 RNA with A25C, G28C, A31U
DNA 1: CAATCTGAATTCCGGTCTCCC
DNA 2: TGGTGGCTACGACGGGATT
B30: AUAUCUA (DNA:RNA)
RNA: B1 RNA with G27A, G28U, G29C, G30U
DNA 1: CAATCTGAATTCCGGTCTCCC
DNA 2: TGGTGGCTACGACGGGATT
B31: AGCCAUU (DNA:RNA)
RNA: B2 RNA with C25A, A26G, A27C
DNA 1: CAATCTGAATTCCGGTCTCCC
DNA 2: TGGTGGCTACGACGGGATT

This assay addresses T1, RBFOX1 RRM. Kind of assay: EMSA; HiTS-Eq, 1 nM pool, 10 min; buffer printed only for the single-RNA assays: 10 mM Tris pH 7.5, 150 mM NaCl, 3.4 mM EDTA, 0.001% NP-40, 30 C. To be noted: tags: His6 N-terminal (pET28a); label: 5' 32P. The method, boiled down: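 These values rest on relative association constants, computed from read-count changes of each RNA species versus the control reaction and normalised to the cognate motif. Reads came from free RNA recovered by 8% native PAGE after purified RbFox RRM (wild type or mutant) at increasing concentrations was equilibrated for 10 min in 50 µL with 1 nM of a 5′-radiolabelled pool with 7 randomized nucleotides and DNA-annealed flanks.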
In general terms: A gel shift assay detects complexes by their altered migration in electrophoresis.
Regarding B1, the binding signal was 0.00905 KA relative to UGCAUGU.
The result for B2 reads 0.00117 KA relative to UGCAUGU; that for B3, 0.00805 KA relative to UGCAUGU.
The same measure for B4: 0.0112 KA relative to UGCAUGU.
B5: the binding signal is 0.0109 KA relative to UGCAUGU.
B6: the binding signal was 0.0192 KA relative to UGCAUGU.
For the molecule B7, the binding signal is 0.00337 KA relative to UGCAUGU.
The result for B8 reads 0.000198 KA relative to UGCAUGU; that for B9, 0.0293 KA relative to UGCAUGU.
In the case of B10, the binding signal was 0.00114 KA relative to UGCAUGU.
The same measure for B11: 0.015 KA relative to UGCAUGU.
As to B12, the binding signal was 0.00121 KA relative to UGCAUGU.
For the molecule B13, the binding signal was 0.00811 KA relative to UGCAUGU.
Consider B14, for which the binding signal is 0.0125 KA relative to UGCAUGU.
Consider B15, for which the binding signal was 0.0177 KA relative to UGCAUGU.
Regarding B16, the binding signal is 0.0123 KA relative to UGCAUGU.
The result for B17 reads 0.0165 KA relative to UGCAUGU; that for B18, 0.00036 KA relative to UGCAUGU; that for B19, 0.0083 KA relative to UGCAUGU.
For the molecule B20, the binding signal was 0.0206 KA relative to UGCAUGU.
The same measure for B21: 0.00445 KA relative to UGCAUGU.
For the molecule B22, the binding signal was 0.0104 KA relative to UGCAUGU.
B23: the binding signal was 0.00337 KA relative to UGCAUGU.
In the case of B24, the binding signal was 0.0171 KA relative to UGCAUGU.
The result for B25 reads 0.00829 KA relative to UGCAUGU; that for B26, 0.0158 KA relative to UGCAUGU.
The result for B27 reads 0.00404 KA relative to UGCAUGU; that for B28, 0.00588 KA relative to UGCAUGU; that for B29, 0.017 KA relative to UGCAUGU.
The result for B30 reads 0.00122 KA relative to UGCAUGU; that for B31, 0.00149 KA relative to UGCAUGU.
